Results reported in the antibiotic and cytotoxicity screens of Wong et al. (2023).
The list shows a part of the results.

What follows are compounds tested on HepG2 (assay: cytotoxicity call (relative viability < 0.9)). Conditions: 10 µM.

Row | Structure (SMILES) | cytotoxicity call
1 | CO[C@@H]1CN(C)C(=O)c2ccc(NC(=O)CN(C)C)cc2OC[C@@H](C)N(C(=O)c2ccncc2)C[C@H]1C | inactive
2 | COc1ccc2c3c(n(c2c1)C)[C@H](CO)N(Cc1cc(cc(c1)OC)OC)C[C@]13CCN(CC1)S(=O)(=O)c1cn(cn1)C | inactive
3 | CN(C)CCN1CCc2ncc(Cn3cncn3)n2CC1 | inactive
4 | C[C@H](CO)N1C[C@H](C)[C@H](CN(C)Cc2ccc(C(=O)O)cc2)Oc2c(NC(=O)c3ccncc3)cccc2C1=O | inactive
5 | C[C@@H]1CCCCO[C@@H](CN(C)C(=O)Nc2cccc3ccccc23)[C@H](C)CN([C@H](C)CO)C(=O)c2cc(NS(=O)(=O)c3ccccc3)ccc2O1 | active
6 | C[C@@H]1CCCCO[C@H](CN(C)S(=O)(=O)c2cccs2)[C@H](C)CN([C@@H](C)CO)C(=O)c2cc(NC(=O)C3CCCCC3)ccc2O1 | inactive
7 | C[C@H]1CN([C@@H](C)CO)C(=O)Cc2cc(NS(=O)(=O)c3ccc(Cl)cc3)ccc2O[C@@H]1CN(C)C(=O)Nc1cccc2ccccc12 | inactive
8 | Cc1noc(C)c1S(=O)(=O)Nc1ccc2c(c1)C(=O)N([C@@H](C)CO)C[C@H](C)[C@H](CN(C)C)OCCCC[C@H](C)O2 | inactive
9 | CC(C)(C)[S@@](=O)N1Cc2cc(C(=O)NCCN3CCCCC3)nc(-c3cccc(-c4ccc(C#N)cc4)c3)c2[C@H]1CCO | inactive
10 | CO[C@@H]1CN(C)C(=O)c2cc(NS(=O)(=O)CC(F)(F)F)ccc2OC[C@H](C)N(C(=O)c2ccc3c(c2)OCO3)C[C@H]1C | inactive
11 | COc1ccc(NC(=O)N2C[C@H](O)COC[C@@H]3O[C@@H](CC(=O)NC4Cc5ccccc5C4)CC[C@H]32)cc1 | inactive
12 | Cc1cc(C(=O)Nc2cccc3c2O[C@H](CN(C)S(=O)(=O)c2cn(C)cn2)[C@H](C)CN([C@H](C)CO)C3=O)n(C)n1 | inactive
13 | C[C@@H]1CN([C@H](C)CO)C(=O)c2cc(C#CCN(C)C)cnc2O[C@H]1CN(C)C(=O)CN1CCOCC1 | inactive
14 | Cc1c(O)c(=O)ccn1C | inactive
15 | CCN(CC)C(=O)c1ccc(O)c(OC)c1 | inactive
16 | O=C(C[C@@H]1CC[C@@H](NC(=O)c2ccc(F)cc2)[C@@H](CO)O1)NCc1ccncn1 | inactive
17 | C[C@@H]1CN([C@H](C)CO)C(=O)c2cc(NC(=O)Nc3ccc4c(c3)OCO4)ccc2O[C@@H](C)CCCCO[C@@H]1CN(C)Cc1ccc(Cl)c(Cl)c1 | active
18 | CC(C)NC(=O)Nc1ccc2c(c1)C(=O)N([C@H](C)CO)C[C@H](C)[C@H](CN(C)Cc1ccc(Cl)c(Cl)c1)OCCCC[C@H](C)O2 | inactive
19 | CC[C@@H](C)NCCCCOc1ccc(Cl)cc1C(C)(C)C | active
20 | Cc1noc(C)c1NC(=O)Nc1cccc2c1O[C@H](CN(C)C(=O)Nc1ccc(C(F)(F)F)cc1)[C@@H](C)CN([C@@H](C)CO)C2=O | inactive

Row | Structure (SMILES) | cytotoxicity call
21 | COCC#Cc1ccc([C@H]2[C@H](CO)N3C(=O)CN(C(=O)C4CCOCC4)C[C@@H]23)cc1 | inactive
22 | C[C@@H]1CCCCO[C@H](CN(C)C(=O)Nc2ccccc2)[C@H](C)CN([C@H](C)CO)C(=O)c2cc(NC(=O)Nc3ccc(F)cc3)ccc2O1 | inactive
23 | O=C(C[C@@H]1CC[C@H]2NC[C@H](O)COC[C@@H]2O1)NCCN1CCCC1 | inactive
24 | C[C@H]1CN([C@@H](C)CO)C(=O)c2cc(NS(=O)(=O)c3cn(C)cn3)ccc2O[C@@H]1CN(C)C(=O)Nc1ccccc1 | inactive
25 | Fc1cc2ccncc2cc1Cl | inactive
26 | COc1ccc(NC(=O)Nc2ccc3c(c2)C(=O)N([C@@H](C)CO)C[C@@H](C)[C@@H](CN(C)C(=O)CCC(F)(F)F)OCCCC[C@H](C)O3)cc1 | inactive
27 | C[C@H]1CN([C@@H](C)CO)C(=O)c2cccc(NC(=O)NC3CCCCC3)c2O[C@@H]1CN(C)S(=O)(=O)c1cn(C)cn1 | inactive
28 | C#CCN1C(=O)C[C@H](O)C1=O | inactive
29 | CC(C)NC(=O)Nc1cccc2c1O[C@@H](CN(C)C(=O)Nc1ccc3c(c1)OCO3)[C@@H](C)CN([C@H](C)CO)C2=O | inactive
30 | CC[C@@H](N)C12CC3CC(CC(C3)C1)C2 | inactive
31 | COc1ccc(C[C@@H](N)C(=O)N[C@@H]2[C@@H](O)[C@@H](n3cnc4c(N(C)C)ncnc43)O[C@@H]2CO)cc1 | active
32 | C[C@@H]1CN([C@@H](C)CO)C(=O)c2cc(NS(=O)(=O)c3ccccc3)ccc2O[C@@H](C)CCCCO[C@@H]1CN(C)Cc1ccc(C(=O)O)cc1 | inactive
33 | C[C@@H]1CN([C@@H](C)CO)C(=O)c2cc(NC(=O)CCC(F)(F)F)ccc2O[C@@H]1CN(C)Cc1ccc(C(F)(F)F)cc1 | inactive
34 | Cc1noc(C)c1NC(=O)Nc1ccc2c(c1)C(=O)N([C@H](C)CO)C[C@H](C)[C@H](CN(C)S(=O)(=O)c1cccs1)OCCCC[C@H](C)O2 | inactive
35 | C[C@@H]1CCCCO[C@@H](CN(C)C(=O)Nc2cccc3ccccc23)[C@@H](C)CN([C@H](C)CO)C(=O)c2cc(NC(=O)Nc3ccccc3)ccc2O1 | inactive
36 | C[C@H]1CCCCO[C@@H](CN(C)C(=O)Nc2ccc(C(F)(F)F)cc2)[C@@H](C)CN([C@@H](C)CO)C(=O)c2cc(NS(C)(=O)=O)ccc2O1 | inactive
37 | COc1ccc2c3c(n(c2c1)C)[C@H](CO)N(C[C@]13CN(C1)C(=O)CN(C)C)C(=O)CN(C)C | inactive
38 | COc1ccc(CN(C)C[C@H]2Oc3ccc(NS(=O)(=O)c4c(C)noc4C)cc3C(=O)N([C@H](C)CO)C[C@H]2C)cc1 | inactive
39 | C[C@H](CO)N1C[C@H](C)[C@@H](CN(C)C(=O)CN(C)C)Oc2cc(-c3ccc(C#N)cc3)ccc2S1(=O)=O | inactive
40 | COc1ccc(S(=O)(=O)N(C)C[C@H]2OCCCC[C@H](C)Oc3ccc(NS(C)(=O)=O)cc3C(=O)N([C@@H](C)CO)C[C@@H]2C)cc1 | inactive
